Source: the RNAGym collection of RNA variant scans (doi:10.7554/elife.90254)
The source gives no read counts; variants with many changes may rest on few reads.

B1: OR4K15 (parent)
chain: GUUAACGGUCAUAGGCCAUGGAAACUAGGAGCACCAUUUCGCUGCCAGUGAAGAAAUGAACAAAGAAAAUCUGGGCCAGGCAGGCAUCAAAAGAAAUAGUCUUGCGCUCAACCAGAAAGUCUGUAAUCAUUUUAAGGGUA

Variants of: B1
Test: self-cleavage, relative activity (ratio to wild type); higher = more cleavage; in vitro, sequencing; the parent is a self-cleaving ribozyme

Variant	self-cleavage
GUUAACGGUCAUAGGCCACGGAAACUAGGAGCACCAUUUCGCUGCCAGUGAGGAAAUGAACAAAGAAAAUCUGGGCCAGGCAGGCAUCAAAAGAAAUAGUCUUGCGCUCAACCAGAAAGUCUGUAAUCAUCUUAAGGGUA [U19C A52G U131C]	0.95
GUUAACGGUCAUAGGCCACGGAAGCUAGGAGCACCAUUUCGCUGCCAGUGAAGAAAUGAACAAAGAAAAUCUGGGCCAGGCAGGCAUCAAAAGAAAUAGUCUUGCGCUCGACCAGAAAGUCUGUAAUCAUUUUAAGGGUA [U19C A24G A110G]	0.05
GUUAACGGUCAUAGGCCACGGAAUCUAGGAGCACCAUUUCGCUGCUAGUGAAGAAAUGAACAAAGAAAAUCUGGGCCAGGCAGGCAUCAAAAGAAAUAGUCUUGCGCUCAACCAGAAAGUCUGUAAUCAUUUUAAGGGUA [U19C A24U C46U]	1.39
GUUAACGGUCAUAGGCCACGGAGACUAGGAGCACCAUCUCGCUGCCGGAGAAGAAAUGAACGAAGAAAAUCUGGGCCAGGCAGGCAUCAAAAGAAAUAGUCUUGCGCUCAACUAGAAAGUCUGUAAUCAUUCUAAGGGUA [U19C A23G U38C A47G U49A A62G C113U U132C]	0.03
GUUAACGGUCAUAGGCCACGGAAACUGGGAGCACCAUUUCGCUGCCUGUGGAGAAAUGAACAAAGAAAAUCUGGGCCGGGCAGGCAUCAAAAGAAAUAGUCUCGCGCUCAACCAGAAAGUCUGUAAUCAUUUUAAGGGUA [U19C A27G A47U A51G A78G U103C]	0.33
GUUAACGGUCAUAGGCCACGGAAACUAGGAGCACCAUUUCGCUGCCAGUGAUGAAAUGAACAAAGAAAAUCUGGGCCAGGCAGGCAUCAAAAGAAACAGUCUUGCGCUCAACCAGAAAGCCUGUAAUCAUUUUAAGGGUA [U19C A52U U97C U120C]	0.72
GUUAACGGUCAUAGGCCACGGAAACUAGGAGCACCAUUUCGCUGCCAGUGAAGAAGUGAACAAAGAAAAUCUGGGCCAGGCAGGCAUCAAAAGAAAUAGUCUUGCGCUCAACCAGAAAGUCUGUAAUCAUUUUAAGGGCA [U19C A56G U139C]	1.47
GUUAACGGUCAUAGGCCACGGAAACUAGGAGCGCCAUUUCGCUGCCAGUGAAGAAAUGAACAAAGAAAAUCUGGGCCAGGCAGGCAUCAAAAGAAAUAGUCUUGCGCUCAACCAGAAAGUCUGUGAUCACUUUAAGGGUA [U19C A33G A125G U130C]	0.14
GUUAACGGUCAUAGGCCACGGAGGCUAGGAGCACCAUUUCGCUGCCAGUGAAGAAAUGAACAAAGAAAAUCUGGGCCAGGCAGGCAUCAAAAGAAAUAGUCUUGCGCUCAACCAGAAAGUCCGUAAUCAUUUUAAGGGUA [U19C A23G A24G U122C]	0.47
GUUAACGGUCAUAGGCCACGGAAACUAGGAGCGCCAUUUCGCUGCCUGUGAAGAAAUGAACAAAGAAAAUCUGGACCAGGCAGGCACCAACAGAAAUAGUCUUGCGCUCAACCAGAAAGUCUGUAAUCAUUUUAAGGGUA [U19C A33G A47U G75A U87C A91C]	0.12
GUUAACGGUCAUAGGCCACGGAAACUAGGAGCACCAUUUCGCUGCCAGUGAAGAAGUGAACAAAGAAAAUCUGGGCCAGGCAGGCGUCAAAAGAAAUAGUCUUGCGCUCAACCAGAAAGUCUGUAAUCAUCUUAAGGGUU [U19C A56G A86G U131C A140U]	0.74
GUUAACGGUCAUAGGCCACGGAAACUAGGAGCACCAUUUCGCUGCCAGUGAAGAGAUGAACAAUGAAAAUCUGGGCCAGGCAGGCAUCAAAAGAAAUAGUCUUGCGCUCAACCAGAAAGUCUGUAAUCAUUUUAAGGGUA [U19C A55G A64U]	1.63
GUUAACGGUCAUAGGCCACGGAAACUAGGAGCACCAUUUCGCUGCCUGUGAAGAAACGAACAAAGAAAAUCUGGGCCAGGCAGGCAUCAAAAGAAAUAGUCUUGCGCUCAACCAGAAAGUCUGUAAUCAUUUUAAGGGUA [U19C A47U U57C]	0.55
GUUAACGGUCAUAGGCCACGGAAGCUAGGAGCACCAUUUCGCUGCCAGUGAAGAAAUGAACAAAGAAAAUCUGGGCCAGGCAGGCAUCAAAGGAAAUAGUCUUGCGCUCAAUCAGAAAGUCUGUAAUCAUUUUAAGGGUA [U19C A24G A92G C112U]	0.01
GUUAACGGUCAUAGGCCACGGAAACUAGGAGCGCCAUUUCGCUGCCAGUGAAGAAAUGAACAAAGAAAAUCUGGGCCAGGCAGGCAUCAAAAGAAAUAGUCUUGCGCUCAACCAGAAAGUCCGUAAUCAUUUUAAGGGUA [U19C A33G U122C]	0.49
GUUAACGGUCAUAGGCCACGGAAACUAGGAGCACCAUUUCGCUGCCAGUGAGGAAAUGAACAUAGAAAAUCUGGGCCAAGCAGGCAUCAAAAGAUAUAGUCUUGCGCUCAACCAGAAAGUCUGUAAUCAUUUUAAGGGUA [U19C A52G A63U G79A A95U]	0.18
GUUAACGGUCAUAGGCCACGGAAACUAGGAGCACCAUUUCGCUGCCAGUGGAGAAAUGAACAAAGAAAAUCUGGGCCGGGCAGGCAUCAAAAGAAAUAGUCUUGCGCUCAACCAGAAAGUCUGUAAUCAUUUUAAGGGUA [U19C A51G A78G]	0.23
GUUAACGGUCAUAGGCCACGGAGACUAGGAGUACCAUUUCGCUGCCAGUGAAGAAAUGAACAAAGAAAAUCUGGGCCAGGCAGGCAUCAAAAGAAAUAGUCUUGCGCUCAACCAGAAAGUCUGUAAUCAUUUUAAGGGUA [U19C A23G C32U]	0.53
GUUAACGGUCAUAGGCCACGGAAACUAGGAGCACCAUUUCGCUGCCAGUGAGGAAAUGAACAAAGAAAAUCUGGGCCAGGCAGGCAUCAAGAGAAAUAGUCUUGCGCUCAACCAGAAAGUCUGUAAUCAUUUUAAGGGUA [U19C A52G A91G]	0.98
GUUAACGGUCAUAGGCCACGGAAACUAGGAGCACCAUUUCGCUGCCAGUGAAGGAAUGAACAAAGAAAAUCUGGGCCAGGCAGGCAUCAAAAGAAAUAGUCUUGCGCUCGACCAGAAAGUCUGUAAUCAUUUUAAGGGUA [U19C A54G A110G]	0.14
